According to PubChem BioAssay AID1508624 (National Center for Advancing Translational Sciences (NCATS), 2021):
Screen size: about 48,000 compounds; about 120 (0.25%) were called active. About 4% were inconclusive and are not listed. The call rests on the fitted dose curve; in most records, active means well fitted activation curve with a large enough effect; inconclusive means small, poorly fitted or top-dose-only effect, or another doubt; inactive means no such curve, though single readings can be large or run the other way. The list shows a part of the results.

Assay: Primary qHTS for Identification of Small Molecule Activators of Huntingtin-Antisense Promoter Activity; further: nearly all actives have a fitted effect of over 55% in size
Details: HEK293 HTT-AS promoter firefly luciferase reporter, 24 h; series mostly up to 57.5 µM; activity change, positive = activation: at the top concentration
Procedure, shortened: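 Firefly luciferase signal from promoter-reporter HEK293 cells was scaled between vehicle (0%) and zero RLU (-100%). Compounds were tested at final concentrations of up to 57.5 uM over 24 h at 37 degrees C. PTC124 at 50 uM final served as control inhibitor.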

Row | Compound | activity change, positive = activation
1 | CCOc1ccc(NC(=O)N(C)CCc2c(C)nn(C)c2C)cc1 | inactive: 6.44%
2 | CN(C)c1ccc(NC(=O)CSc2nc3ccsc3c(=O)n2CCCCCC(=O)O)cc1 | inactive: -9.37%
3 | COc1cc(OC)c(NC(=O)C(Cc2ccccc2)NS(=O)(=O)c2cccc3nsnc23)cc1Cl (configuration not stated) | inactive: -15.4%
4 | Cc1c(C(=O)N(Cc2ccco2)Cc2ccccc2Cl)oc2ccc(F)cc12 | inactive: -33.3%
5 | COc1ccc(OC(C)C(=O)NCc2nc(-c3cccc(C)c3)no2)cc1 (configuration not stated) | inactive: 8.8% [at 11.5 µM, percent change from vehicle, -100% = no light]
6 | CC(=O)c1cccc(NC(=O)Cc2noc3ccccc23)c1 | inactive: 4.3%
7 | CC(C)CCNC(=O)CN1C(=O)c2cccnc2Sc2ccccc21 | inactive: -6.15%
8 | COc1ccc(CC(=O)Nc2cc(-c3cn4cccnc4n3)ccc2OC)cc1 | inactive: -10.4%
9 | O=C(Nc1ccc2nc(SCCOc3ccccc3Cl)sc2c1)c1ccc2c(c1)OCO2 | inactive: -35.6%
10 | CCCCC(=O)NC1(C(F)(F)F)C(=O)Nc2c1c(=O)[nH]c(=O)n2-c1ccc(C)c(C)c1 (configuration not stated) | inactive: -3.31%
11 | Cc1ccc(S(=O)(=O)NCc2ccc(C(=O)NCCc3cccc(C)c3)cc2)cc1 | inactive: -9.48%
12 | COc1ccc(S(=O)(=O)N(Cc2nc(-c3ccc(Cl)cc3)no2)C2CCCCC2)cc1 | inactive: -35.4%
13 | N#Cc1c(C(F)(F)F)cc(-c2cccs2)nc1SCC(=O)Nc1cccc(C(F)(F)F)c1 | inactive: -48.1%
14 | O=C(c1ccccc1Br)N1CCC(c2nc3ccccc3o2)CC1 | inactive: -21%
15 | Cc1ccc(Cn2c(=O)n(-c3cc(C)cc(C)c3)c(=O)c3oc4ccccc4c32)cc1 | inactive: -20.4%
16 | O=S(=O)(c1ccc(-n2cnnn2)cc1)N1CCN(c2cccc(C(F)(F)F)c2)CC1 | inactive: -13%
17 | Cc1oc(C)c2c(=O)cc(-c3ccc4c(c3)OCO4)cc(OC(=O)c3cccc(Cl)c3)c12 | inactive: -24.2%
18 | COc1cc(C(=O)N(Cc2cccnc2)c2nc3cc(C)c(C)cc3s2)cc(OC)c1OC | inactive: -23.2%
19 | COc1cc(Cl)c(C)cc1NC(=O)c1sc2nc(C)cc(C)c2c1N | inactive: -0.488%
20 | Cc1ccsc1CN(C(=O)COc1cccc(C)c1C)C1CCS(=O)(=O)C1 (configuration not stated) | inactive: -18%
21 | CN1C(=O)C(C)(C)c2cc(S(=O)(=O)N3CCCC3C(=O)Nc3ccc(F)cc3)ccc21 (configuration not stated) | inactive: -31.2%
22 | CCOC(=O)COc1ccc(F)cc1C(=O)c1ccn2nc(-c3ccc(C)cc3)cc2n1 | inactive: -9.69%
23 | COc1ccccc1NC(=O)C(Cc1ccccc1)NS(=O)(=O)c1cccc2nsnc12 (configuration not stated) | inactive: -3.63%

Row | Compound | activity change, positive = activation
24 | CCCCOC(=O)c1cccc(NC(=O)/C=C/c2ccccc2Cl)c1 | inactive: -43.1%
25 | Nc1ccccc1NC(=O)c1ccc(CNc2nccc(-c3cccnc3)n2)cc1 | inactive: -13.4%
26 | COC(=O)c1ccc(Cl)cc1NC(=O)N(Cc1ccc(OC)cc1)C1CCN(C(C)=O)CC1 | inactive: -15.9%
27 | COc1ccc(OC)c(NC(=O)CSc2nc3ccccc3c(=O)n2CCC(=O)NC2CCCCC2)c1 | inactive: 1.64%
28 | O=C(Cn1c(SCC(=O)Nc2ccc(F)cc2)nc2ccccc21)NCc1ccccc1Cl | inactive: -11.3%
29 | COc1ccc(-n2cc(C(=O)OCc3ccc(Cl)cc3)c3ccccc3c2=O)cc1 | inactive: -3.25%
30 | CN(C)c1ccc(C(CNS(=O)(=O)c2ccc(F)cc2)N2CCOCC2)cc1 (configuration not stated) | inactive: -22.9%
31 | CCC(C(=O)Nc1ccc(C(=O)OC)cc1)n1nc(-c2ccc(C)c(C)c2)ccc1=O (configuration not stated) | inactive: -29%
32 | COc1cc(OC)cc(C(=O)Nc2cc(-c3nc4cccnc4s3)ccc2C)c1 | inactive: -10.9%
33 | Cc1c(C(=O)OC2CCCCCC2)[nH]c2c1C(=O)CC(c1ccc(N(C)C)cc1)C2 (configuration not stated) | inactive: -10.1%
34 | COc1ccc(NC(=O)C2CCN(S(=O)(=O)c3ccc4c(c3)CCCC(=O)N4)CC2)c(OC)c1 | inactive: -23%
35 | CCOc1ccc(Nc2sc(C(=O)c3cccc(OC)c3)c(N)c2S(=O)(=O)c2ccccc2)cc1 | inactive: 32.1%
36 | Cn1c(=O)c(=O)n(C)c2cc(S(=O)(=O)N3CCCC3C(=O)Nc3ccc(F)cc3)ccc21 (configuration not stated) | inactive: -3.77%
37 | CCOc1ccc(CNC(=O)Cn2ccc3cc(S(=O)(=O)N4CCCCC4)ccc32)cc1 | inactive: -21.9%
38 | Cc1ccc(NC(=O)CSc2ccc(-c3ccccn3)nn2)cc1F | inactive: -16.4%
39 | COc1ccc(S(=O)(=O)N(CC(=O)NCCSCc2ccccc2)c2ccc(C)cc2)cc1 | inactive: -24.4%
40 | CC(C)c1ccc(NC(=O)c2ccc3c(O)c(S(=O)(=O)c4ccccc4)c(=O)[nH]c3c2)cc1 | inactive: 0.134%
41 | O=c1c2ccccc2n2c(-c3ccccc3F)nnc2n1CCc1ccccc1 | inactive: 0%
42 | COc1cc(OC)c(N(C)C(=O)c2cc3c(=O)oc4ccccc4c3s2)cc1Cl | inactive: -6.77%
43 | Cc1ccc(-n2nc(C(=O)N(C)Cc3ccccc3)c3c4ccccc4n(C)c3c2=O)cc1 | inactive: -13.3%
44 | Cc1ccc(C(=O)N(c2ccc(C)cc2)S(=O)(=O)c2ccc(Cl)cc2)cc1 | inactive: -19.1%
45 | Cc1ccc(-n2c(=O)c3c(c4cc(C)ccc4n3C)n(Cc3ccc(F)cc3)c2=O)cc1 | inactive: -2%
46 | Cc1ccc(NC(=O)C(Cc2ccccc2)N2Cc3ccccc3C2=O)cc1Cl (configuration not stated) | inactive: -33.5%

Row | Compound | activity change, positive = activation
47 | O=C(CCC1N=C2c3ccccc3N=C(SCC(=O)Nc3ccc(F)cc3)N2C1=O)NCc1cccs1 (configuration not stated) | inactive: -40.6%
48 | Cc1cccc(NC(=O)c2ccc(CNS(=O)(=O)c3ccc4c(c3)C(C)(C)C(=O)N4C)cc2)c1 | inactive: -45.1%
49 | CC(C)(C)OC(=O)Nc1ccc(-c2cc(C(=O)NCCCCCCC(=O)NO)no2)cc1 | inactive: -35.5%
50 | Cc1ccccc1C(=O)N(Cc1ccc(N(C)C)cc1)CC1CCCO1 (configuration not stated) | inactive: -9.51%
51 | Cc1ccc(N2CCN(C(=O)NCc3noc4ccc(C)cc34)CC2)c(C)c1 | inactive: -10.2%
52 | COc1ccccc1NC(=O)CSC1=Nc2ccccc2C2=NC(CC(=O)NCc3ccc4c(c3)OCO4)C(=O)N12 (configuration not stated) | inactive: -24.2%
53 | COc1ccccc1N=C1SC(C(=O)Nc2ccccc2OC)CC(=O)N1C (configuration not stated) | inactive: -23.8%
54 | CCOC(=O)c1noc2ncnc(NCc3ccccc3OC)c12 | inactive: -0.586%
55 | O=C(NCCOCCn1c(=O)oc2ccccc21)Nc1cccc(Cl)c1 | inactive: -7.06%
56 | COC(=O)c1ccccc1NC(=O)C1CCCN(c2ncnc3onc(C)c23)C1 (configuration not stated) | inactive: -6.06%
57 | Cc1ccc(CNC(=O)c2sc3nc4n(c(=O)c3c2C)CCCCC4)cc1 | inactive: 2.92%
58 | CCCS(=O)(=O)N1CC(=O)N(c2ccc(C)cc2C)C(C)(C(=O)NC2CCCCCC2)C1 (configuration not stated) | inactive: -11.9%
59 | O=C(Cn1c(=O)nc(-c2ccccc2)c2cc(Cl)ccc21)NCc1ccc(Cl)cc1 | inactive: -25.6%
60 | O=C(CCS(=O)(=O)c1cc2c3c(c1)CCN3C(=O)CC2)Nc1cccc(Br)c1 | inactive: 0.568%
61 | CCOc1ccc(CCNC(=O)c2ccc3c(c2)N(Cc2ccccc2F)C(=O)c2ccccc2S3=O)cc1OCC (configuration not stated) | inactive: -17.5%
62 | COc1ccc(CCNS(=O)(=O)c2cc(-c3onc(C)c3C)ccc2OC)cc1OC | inactive: -10.7%
63 | CCc1ccc(NC(=O)CSc2nc(=O)n(Cc3ccncc3)c3c2CCC3)cc1 | inactive: -31.8%
64 | Cc1ccc(C)c(Nc2nn3c(=O)c4cc5c(cc4nc3s2)OCO5)c1 | inactive: 14.3%
65 | Cc1cc2c(cc1S(=O)(=O)CCC(=O)N1CCCCC1C)OCC(=O)N2 (configuration not stated) | inactive: -11.2%
66 | O=C(COCc1cc(-c2ccc3c(c2)OCO3)on1)Nc1cc(C(F)(F)F)ccc1Cl | inactive: -4%
67 | CCN1CCN(CCCNC(=O)Cn2c(-c3cccs3)cc3cc(F)ccc32)CC1 | inactive: -14.4%
68 | CCCCN(C)CCNC(=O)CN1C(=O)CSc2ccc(S(=O)(=O)N3CCCCC3)cc21 | inactive: -2.56%
69 | CCOC(=O)N1CCc2c(sc(NCc3cccs3)c2C(=O)Nc2ccc(OC)cc2OC)C1 | inactive: -90.6%

Row | Compound | activity change, positive = activation
70 | O=c1c(S(=O)(=O)c2ccccc2)cn(Cc2cccc(F)c2)c2cc(N3CCCC3)c(F)cc12 | inactive: -8.52%
71 | COc1ccccc1N1CCN(S(=O)(=O)CCNC(=O)Cc2ccc(Cl)cc2)CC1 | inactive: -21%
72 | CCCCNC(=O)CCn1c(=O)c2cccn2c2cccnc21 | inactive: -1.79%
73 | CCN(C(=O)c1c(C)oc2ncn(CC(C)C)c(=O)c12)c1cccc(Cl)c1 | inactive: -7.11%
74 | Cc1oc(-c2ccc(C(=O)NCc3ccccc3Cl)cc2)nc1CN1CCc2ccccc21 | inactive: -34.4%
75 | CCCn1c(CCC(=O)Nc2ccc(C)c(Cl)c2)nc2cccnc21 | inactive: -19.2%
76 | COc1ccc(C)cc1NC(=O)c1cc(S(=O)(=O)N2CCc3ccccc3C2)ccc1F | inactive: -29.2%
77 | CCC1=C(c2ccc(C)cc2)S(=O)(=O)N=C1N1CCC(C(=O)NCCc2ccc(Cl)cc2)CC1 | inactive: -39.7%
78 | Cc1ccc(CCNC(=O)c2c[nH]c3ccc(S(=O)(=O)Nc4cccc(C(F)(F)F)c4)cc3c2=O)cc1 | inactive: -43.4%
79 | O=C(CC1N=C2c3ccccc3N=C(SCc3cccc(Cl)c3)N2C1=O)NCCc1ccccc1 (configuration not stated) | inactive: -34.2%
80 | Cc1ccc(S(=O)(=O)C(CNC(=O)C(=O)NCCc2ccc(Cl)cc2)c2cccs2)cc1 (configuration not stated) | inactive: -38.6%
81 | Cc1ccc(NC(=O)c2oc3ccccc3c2NC(=O)C23CC4CC(CC(C4)C2)C3)cc1 | inactive: -8.42%
82 | CCOc1ccc(Nc2ncnc3scc(-c4ccc(OC)cc4)c23)cc1 | inactive: -19.3%
83 | Cc1ccc(C(=O)NCc2ccccc2)cc1NC(=O)c1nsc2ccccc12 | inactive: 17.8%
84 | CCOC(=O)c1c(C)[nH]c(C)c1S(=O)(=O)N1CCC(C(=O)Nc2ccc(C)c(N(C)C)c2)CC1 | inactive: -9.42%
85 | Cn1cc(C(=O)NCCc2ccccc2)c(=O)c2cc(S(=O)(=O)N3CCCCC3)ccc21 | inactive: -5.05%
86 | CC(C)(C)OC(=O)N1CCC(c2c(C(=O)N3CCN(Cc4ccccc4)CC3)cnn2-c2ccc(Cl)cc2)CC1 | inactive: -38.6%
87 | CCc1ccc(N2C(=O)CN(S(=O)(=O)CC)CC2(C)C(=O)NC2CCCCC2)cc1 (configuration not stated) | inactive: -13.6%
88 | Cc1cc(-c2ccc(C)c(S(=O)(=O)NCc3cccs3)c2)on1 | inactive: -29.7%
89 | Cc1ccc2oc(=O)n(Cc3ccccc3Cl)c2c1 | inactive: -20.9%
90 | Cc1ccc2oc(-c3cc(NC(=O)c4oc5ccccc5c4C)ccc3Cl)nc2c1 | inactive: -12.6%
91 | Clc1cccc(-n2nnnc2NCc2ccccc2Oc2ccccn2)c1Cl | inactive: -22.1%
92 | CCc1ccc(OCC(=O)Nc2cc(-c3nc4cc(C)ccc4o3)ccc2C)cc1 | inactive: -3.07%
